We go through 42 sequences from paper PMC7819943, “Rice protein-binding microarrays: a tool to detect cis-acting elements near promoter regions in rice”.

Some of the results follow.

The target of the assay is T1, OsWOX13 (Oryza sativa, UniProt Q5QMM3 1-267).
T1 sequence: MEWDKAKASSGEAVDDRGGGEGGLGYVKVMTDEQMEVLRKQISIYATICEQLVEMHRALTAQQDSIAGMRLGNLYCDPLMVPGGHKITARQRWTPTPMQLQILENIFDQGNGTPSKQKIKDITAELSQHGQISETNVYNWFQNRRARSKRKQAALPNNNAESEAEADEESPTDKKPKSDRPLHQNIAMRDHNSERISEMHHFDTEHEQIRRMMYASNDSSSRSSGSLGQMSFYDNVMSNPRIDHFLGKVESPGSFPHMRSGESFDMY
As to the kind of experiment: protein-binding microarray (RPBM); PBS, 2% BSA, 51.3 ng/ul salmon testes DNA, 50 uM zinc acetate, 200 nM TF, 25 C, 1 h; high values mean tight binding. The note with it: protein: recombinant; tags: N-terminal polyhistidine and DsRed monomer fusion (pET32a); label: CyDye5-dUTP incorporated in the synthesized complementary strand; 3' TTTTT single-stranded linker to array surface; dsDNA, one strand shown. An outline of the steps: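 The binding signal is fluorescence intensity per feature, in arbitrary units, read on an Axon 4000B scanner. Polyhistidine- and DsRed-tagged transcription factors (N-terminal fusions) from E. coli BL21-CodonPlus were purified on Ni–NTA and applied at 200 nM for 1 h at 25 °C to a double-stranded, BSA-blocked custom Agilent array in buffer with 50 µM zinc acetate.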
For “GTTATCTCTGATTGCAACATCTTGCCGTGTCCACCGCTGTCGGAGTCACCTAGTGCAG”, the binding signal was 17400 fluorescence intensity (a.u.).

Regarding “ACATTGATTTGTATGGCAAAATAGCCATTTTCGTCCCTAACGGAGTCACCTAGTGCAG”, the binding signal is 33100 fluorescence intensity (a.u.).

Regarding “CTCAGATAATTGCCTTCCATGTGTTGTTTTGTTAGATGTGCGGAGTCACCTAGTGCAG”, the binding signal was 30700 fluorescence intensity (a.u.).

On to “GAAAGGACCCTTCAATTATGTATGTGTTAATGTGTACACACGGAGTCACCTAGTGCAG”, for which the binding signal was 5280 fluorescence intensity (a.u.).

For “ATGATTGCATCTTTTCTTGACAAACTTCTCTTTTGGTTGCCGGAGTCACCTAGTGCAG”, the binding signal was 34900 fluorescence intensity (a.u.).

Regarding “ACTTAATAATTAAGAGGCAACATGTATAATACATTACCTCCGGAGTCACCTAGTGCAG”, the binding signal was 14700 fluorescence intensity (a.u.).

Turning to “ATCCATAACTGACACAAGCATTATCACGACGTTTTCACGGCGGAGTCACCTAGTGCAG”, the binding signal was 10400 fluorescence intensity (a.u.).

On to “ATTTGGTGATAGGATCGATTTAATTGCTAGCTGAGGTGATCGGAGTCACCTAGTGCAG”, for which the binding signal was 11000 fluorescence intensity (a.u.).

On to “CTTCCCTGTCAATTCAAGATGCATTACATCTACTCTCTGTCGGAGTCACCTAGTGCAG”, for which the binding signal was 5710 fluorescence intensity (a.u.).

On to “TAGATTGAAGTGTTAAAACATTGATTTGATGTTCTATAGTCGGAGTCACCTAGTGCAG”, for which the binding signal was 26300 fluorescence intensity (a.u.).

On to “GTATTATTCTGATTTCAAATTACCCGATCTTACATAACATCGGAGTCACCTAGTGCAG”, for which the binding signal is 4820 fluorescence intensity (a.u.).

With “CTAATCATCATCATCAGTTCATCACCAGTCGTCGTCAGGGCGGAGTCACCTAGTGCAG”, the binding signal was 4280 fluorescence intensity (a.u.).

Turning to “GCAAATTAAAGAAGGAAATATATATATAGGAGCTACGCAGCGGAGTCACCTAGTGCAG”, the binding signal was 4190 fluorescence intensity (a.u.).

“AAAATTCCATGTTAATTTATAATTAATATAGCTTATGTAACGGAGTCACCTAGTGCAG”: the binding signal is 15900 fluorescence intensity (a.u.).

With “AAAATAGCAAATACTTAATTAATTACGTGCTAATAGGCCGCGGAGTCACCTAGTGCAG”, the binding signal is 17100 fluorescence intensity (a.u.).

For the sequence “TAAAATTGAAACATAATATAAGATATGGTCAAACTTGAAACGGAGTCACCTAGTGCAG”, the binding signal was 13800 fluorescence intensity (a.u.).

For “CCTATGATTTTGTGGTAATGTTTGAGGGTATAAACAAAGGCGGAGTCACCTAGTGCAG”, the binding signal was 21600 fluorescence intensity (a.u.).

For “CTCTTAATAGTTTGGATGACAGTTTCATCCTACGTGACATCGGAGTCACCTAGTGCAG”, the binding signal is 9460 fluorescence intensity (a.u.).

With “ATGCCAAATTTGACATCATGGTGACATTTAGAACATAAAACGGAGTCACCTAGTGCAG”, the binding signal is 4060 fluorescence intensity (a.u.).

Consider “TCTTAATGTCCTCTAATCATGCGCCAAATATGATCCATCGCGGAGTCACCTAGTGCAG”, for which the binding signal was 7160 fluorescence intensity (a.u.).

As to “ACGAGATGAACACTAATTAGCAGAAGAAATTTGTTTAAATCGGAGTCACCTAGTGCAG”, the binding signal was 13300 fluorescence intensity (a.u.).

“AATTACATAATTTTAATACGAAGATGAATGATCAAATATACGGAGTCACCTAGTGCAG”: the binding signal was 3410 fluorescence intensity (a.u.).

On to “TCAGCTGGTTGATAATTAACTAATAACCAGCCAAGCTAGACGGAGTCACCTAGTGCAG”, for which the binding signal is 4340 fluorescence intensity (a.u.).

As to “CAAGATTTACTCAATTTTCTATATATACAAAAGTTTTGTTCGGAGTCACCTAGTGCAG”, the binding signal was 9970 fluorescence intensity (a.u.).

As for “GTAGGATTGATCTCGTTTGATTCGATCTTGGAATAGTCGGCGGAGTCACCTAGTGCAG”, the binding signal is 14400 fluorescence intensity (a.u.).

With “CACAAATTACTTTTCGTTTACCAATATACCGAGCGAAACGCGGAGTCACCTAGTGCAG”, the binding signal was 18200 fluorescence intensity (a.u.).

Consider “ACAAATTATTCCCATATATATATACCAAAAGGATATGCACCGGAGTCACCTAGTGCAG”, for which the binding signal was 6070 fluorescence intensity (a.u.).

Take “AGAGGCAGTAATTAACTATAAAGTCCTGCATATCCATATCCGGAGTCACCTAGTGCAG”: the binding signal is 3820 fluorescence intensity (a.u.).

Turning to “TATCTATAGTTAACTAGCTAATTACCATTAACACCTCACCCGGAGTCACCTAGTGCAG”, the binding signal was 11700 fluorescence intensity (a.u.).

“TTGTAATTAGTAGGGTGATTACTATTTGGTAATCATAAGTCGGAGTCACCTAGTGCAG”: the binding signal is 33000 fluorescence intensity (a.u.).

Consider “CATAATTATGTGTGTGGTCATCATTGAGAAATGGCTTGTCCGGAGTCACCTAGTGCAG”, for which the binding signal was 38000 fluorescence intensity (a.u.).

In the case of “CATTGTATTTATATCCAATTAGGAACTCTCATCCGTACGCCGGAGTCACCTAGTGCAG”, the binding signal was 3760 fluorescence intensity (a.u.).

For the sequence “CTAATTAATCCGTTATTAGCACATATGTGTTACTGTAGCACGGAGTCACCTAGTGCAG”, the binding signal was 12200 fluorescence intensity (a.u.).

Consider “CATAATTAGAGAATGTTTACTGTAGCATCACATAAGCTAACGGAGTCACCTAGTGCAG”, for which the binding signal is 10700 fluorescence intensity (a.u.).

In the case of “TCCCTATTTACCGCAATTGACTTTGAACACAAAAGTTTAACGGAGTCACCTAGTGCAG”, the binding signal was 3400 fluorescence intensity (a.u.).

For the sequence “ACAGTCAAATTCAACTAAAATTTATTGAATTTACCGAGGACGGAGTCACCTAGTGCAG”, the binding signal was 5140 fluorescence intensity (a.u.).

Take “AGGCATAATTATATATGCAACTTTGAATCCAACCGACGCTCGGAGTCACCTAGTGCAG”: the binding signal is 3180 fluorescence intensity (a.u.).

In the case of “TATTTAATTAATCAATGATGTGTTAATCCGCAACTTCATTCGGAGTCACCTAGTGCAG”, the binding signal is 22700 fluorescence intensity (a.u.).

On to “CACAAATTGTAAACATACTACCACCTCAGCTTGCTAGGCGCGGAGTCACCTAGTGCAG”, for which the binding signal was 15600 fluorescence intensity (a.u.).

As to “AATTAAATTTGCCATGGCCTTTTCTGCCTATTTATATCAGCGGAGTCACCTAGTGCAG”, the binding signal is 7000 fluorescence intensity (a.u.).

As to “CCGTTAAATTAAATGATAAGCCATACTTTGATTTCATTTTCGGAGTCACCTAGTGCAG”, the binding signal is 23000 fluorescence intensity (a.u.).

Consider “ATAAATTGGGTCAATTCTCTTCTTCTAAATATAAAAGTGGCGGAGTCACCTAGTGCAG”, for which the binding signal is 24800 fluorescence intensity (a.u.).
